From paper PMC4336329 (PLoS ONE, 2015)
About 14,000 (4.5%) of roughly 310,000 compounds showed an effect of 50% or more. The effect is printed as a negative number. This is one part of the list.

target: human ether-à-go-go-related gene (hERG) potassium channel (human, UniProt Q12809); assay: primary screen, population patch clamp on CHO cells stably expressing hERG
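Note: peak tail current of the secondary pulse compared with the same well before compound.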

Chain of human ether-à-go-go-related gene (hERG) potassium channel (Q12809 whole entry, looked up): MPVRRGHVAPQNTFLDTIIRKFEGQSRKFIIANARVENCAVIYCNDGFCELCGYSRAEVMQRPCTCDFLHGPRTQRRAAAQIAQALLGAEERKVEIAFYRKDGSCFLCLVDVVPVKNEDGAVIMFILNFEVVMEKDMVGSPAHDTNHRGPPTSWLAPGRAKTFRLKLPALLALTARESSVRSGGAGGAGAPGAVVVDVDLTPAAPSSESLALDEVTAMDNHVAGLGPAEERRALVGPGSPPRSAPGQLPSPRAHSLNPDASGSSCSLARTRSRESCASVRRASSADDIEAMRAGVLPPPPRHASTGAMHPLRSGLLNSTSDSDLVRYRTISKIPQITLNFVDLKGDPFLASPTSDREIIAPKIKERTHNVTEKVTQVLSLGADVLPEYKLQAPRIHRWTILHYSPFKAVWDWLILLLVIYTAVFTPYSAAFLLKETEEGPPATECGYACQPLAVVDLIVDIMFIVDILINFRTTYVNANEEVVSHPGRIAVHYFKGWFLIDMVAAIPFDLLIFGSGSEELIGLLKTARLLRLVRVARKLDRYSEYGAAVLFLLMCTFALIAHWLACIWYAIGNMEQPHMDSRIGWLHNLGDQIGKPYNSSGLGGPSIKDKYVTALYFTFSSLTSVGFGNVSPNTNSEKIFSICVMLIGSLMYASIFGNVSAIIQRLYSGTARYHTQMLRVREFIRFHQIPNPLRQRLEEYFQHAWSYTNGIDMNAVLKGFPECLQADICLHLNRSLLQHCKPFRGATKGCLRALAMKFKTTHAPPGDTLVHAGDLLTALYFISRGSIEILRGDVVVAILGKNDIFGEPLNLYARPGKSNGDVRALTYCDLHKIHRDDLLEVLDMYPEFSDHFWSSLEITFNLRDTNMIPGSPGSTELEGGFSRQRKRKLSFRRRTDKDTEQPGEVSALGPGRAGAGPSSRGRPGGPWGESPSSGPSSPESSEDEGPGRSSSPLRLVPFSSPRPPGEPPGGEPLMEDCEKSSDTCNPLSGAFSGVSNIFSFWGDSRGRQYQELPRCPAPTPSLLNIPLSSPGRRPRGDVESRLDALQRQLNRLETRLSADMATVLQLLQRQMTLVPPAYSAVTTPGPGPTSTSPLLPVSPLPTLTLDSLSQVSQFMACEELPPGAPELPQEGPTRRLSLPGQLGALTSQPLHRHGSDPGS

| Structure (SMILES) | hERG current change (%, negative = inhibition) at 10uM |
| --- | --- |
| O=C(O)c1ccc(NCc2cccnc2)cc1 | 16.6% |
| Cc1ccccc1NC(=O)C12CC3CCC1(C)C3(C)CO2 (stereo not shown) | 1.82% |
| S=C(NCc1ccco1)N/N=C/c1ccccc1Cl | 14.1% |
| N#CCC(=O)Nc1ccc(C(=O)Nc2ccc3c(c2)OCO3)cc1 | 6.93% |
| COc1ccc(CN2CCC(Oc3ccc(C(=O)N4CCCCC4)cc3)CC2)cc1C | -45.7% |
| COc1ccc(CNC(=O)CCC2N=C3c4ccccc4N=C(SCC(=O)NCC4CCCO4)N3C2=O)cc1 (stereo not shown) | 7.34% |
| O=C(N/N=C/c1cccc(O)c1)c1csc2ccccc12 | 2% |
| CN(C)CCOC(=O)C1(c2ccccc2)CCOCC1.Cl | 2.37% |
| O=C(CC1C(=O)OCC2CCCCN21)Nc1ccccc1C(F)(F)F.O=C(O)C(=O)O (stereo not shown) | 2.1% |
| CC(=O)c1ccc(NC(=O)[C@@]2(CC(=O)O)CC(/C=C/c3ccccc3)=NO2)cc1 | 13.3% |
| COc1cc(NC(=O)c2cc(C)no2)c(OC)cc1Cl | 17.9% |
| Cc1cc(C)c2nc3sc(C(=O)N4CCOCC4)c(N)c3cc2c1 | -17.3% |
| CCCC(NC(=O)Cc1c(C)c2c(cc(C)c3c(C)coc32)oc1=O)C(=O)O (stereo not shown) | 11.8% |
| COc1ccc(C2=NOC(Cn3nc(-c4ccccc4)cc3C(=O)O)C2)cc1 (stereo not shown) | 16.9% |
| Cl.OC(CNCc1ccc(Cl)c(Cl)c1)c1ccccc1 (stereo not shown) | -4.57% |
| O=C(CSc1nnc(Cc2ccccc2)c(=O)[nH]1)Nc1ccccc1 | -33.7% |
| COc1ccc(OC)c(-n2c(Cn3c(-c4ccccn4)nc4ccccc43)n[nH]c2=S)c1 | -27.4% |
| O=C1c2ccccc2C(=O)C1C1=Nc2ccccc2NC(c2ccccc2)C1 (stereo not shown) | 57.2% |
| CC(CN1CCCC1)OC(=O)COc1ccccc1.Cl (stereo not shown) | 4.51% |
| COCCn1c(C)cc(C(=O)CSc2nc3ccccc3c(=O)n2C(C)COC)c1C (stereo not shown) | -8.32% |
| Cc1c(NC(=O)COC(=O)c2ccc(Br)o2)c(=O)n(-c2ccccc2)n1C | 13.8% |
| CCOc1cccc(-c2nnc3sc(COc4ccc(C)cc4)nn23)c1 | 2.31% |

| Structure (SMILES) | hERG current change (%, negative = inhibition) at 10uM |
| --- | --- |
| CCOc1ccc(C(=O)N/N=C/c2cc([N+](=O)[O-])cs2)cc1 | -4.54% |
| Cc1cc(C)c2c(c1)-c1cc(C)nn1C(c1cccnc1)N2 (stereo not shown) | -11.8% |
| Cc1c(Cl)cccc1NC(=S)N1CCN(S(=O)(=O)c2cccs2)CC1 | -3.16% |
| CCCc1cc(=O)n2nc(N3CCC(C(=O)Nc4c(F)c(F)c(F)c(F)c4F)CC3)sc2n1 | -25.2% |
| O=C(CSc1nc2ccccc2c(=O)n1CCCO)NC1CC1 | -13.4% |
| N#C/C(=C1/C(=O)Nc2ccc(Br)cc21)c1ccccn1 | 12.6% |
| CCN1CCN(C(=O)CN(CC)S(=O)(=O)c2ccc3ccccc3c2)CC1 | -10.2% |
| CCN(CC)CCNC(=O)C(=O)Nc1ccc2c(c1)N(S(=O)(=O)c1cccs1)CCC2 | -78.2% |
| COc1cc([N+](=O)[O-])ccc1-c1ccc(/C=N/NC(N)=O)o1 | 15.7% |
| CC(=O)Nc1c([N+](=O)[O-])cc2[nH]c(=O)[nH]c2c1[N+](=O)[O-] | 13% |
| Oc1ccccc1Nc1ccccn1 | 6.88% |
| O=C(c1ccc(CS(=O)(=O)Cc2ccccc2)cc1)N1CCCCC1 | 34% |
| CC1CCN(C(=O)c2ccc(NC(=O)CC3SC(N4CCCC4)=NC3=O)cc2)CC1 (stereo not shown) | -2.48% |
| O=C(NCCCN1CCOCC1)c1onc(CSc2ccncc2)c1C(=O)NCCCN1CCOCC1 | -5.25% |
| CCOC(=O)c1ccc(-n2c(C)nc3ccccc3c2=O)cc1 | -8.6% |
| CCC(CC)C(=O)OCC(=O)Nc1cc(OC)c([N+](=O)[O-])cc1C | -22.4% |
| COC(=O)c1cc(COc2ccc3oc(C)c(C(=O)OC)c3c2)c(C)o1 | -5.02% |
| Cc1ccc(/C=N/NC(=O)c2nnn(-c3nonc3N)c2C(C)C)o1 | -4.22% |
| CCOc1ccccc1C(=O)Nc1ccc(-n2nncc2C(C)(C)C)cc1 | 10.1% |
| CC(=O)N1CCN(Cc2nc3cc(NC(=O)c4ccccc4C)ccc3n2C)CC1 | 10.2% |
| O=c1[nH]c(=O)n(Cc2ccccc2)c(O)c1C=NCCCO | -5.8% |
| O=C(N/C(=C/c1ccccc1)C(=O)N1CCOCC1)c1ccc([N+](=O)[O-])cc1 | -64.2% |

| Structure (SMILES) | hERG current change (%, negative = inhibition) at 10uM |
| --- | --- |
| COc1ccc(C(=O)N(C)C2CCCc3ccccc32)cc1OC1CCN(C(C)C)CC1 (stereo not shown) | -39.6% |
| Cc1cc(C(=O)Nc2sc3c(c2C#N)CCC(C(C)(C)C)C3)no1 (stereo not shown) | -4.6% |
| COc1ccc(S(=O)(=O)N2CC(C)N(S(=O)(=O)c3ccc(OC)cc3)CC2C)cc1 (stereo not shown) | -10.4% |
| CC(C)(C)c1cc(-c2ccco2)c(C#N)c(SCC#N)n1 | 16.7% |
| O=c1cccc(-c2ccc(Br)cc2)o1 | 6.02% |
| COc1ccc(S(=O)(=O)NCC2CCCN(C(=O)CCC(F)(F)F)C2)cc1 (stereo not shown) | 2.06% |
| O=C(Nc1cccc2cccnc12)c1ccccc1Br | 3.72% |
| N#CCNC(=O)C1CC(=O)N(CCc2ccc(F)cc2)C1 (stereo not shown) | 20.9% |
| COc1cc(N/N=C(\C)c2ccc(N)cc2)nc(-c2ccccc2)n1 | -8.74% |
| CCC(C)[C@H](NC(=O)NCc1cccnc1)C(=O)OC (stereo partly shown) | 21.8% |
| Cc1ccc(S(=O)(=O)N2[C@@H](c3ccc(F)cc3)C(C(=O)O)=CC[C@H]2c2ccc(C(C)C)cc2)cc1 | -15.1% |
| CCOc1ccc(NC(=S)NC(=O)c2cccnc2)c([N+](=O)[O-])c1 | 12.2% |
| CCC(C)NS(=O)(=O)c1ccc(OCC(=O)N2CCN(CC)CC2)cc1 (stereo not shown) | -6.96% |
| Cc1nc(N2CCC(C)CC2)c2c(C)c(C(=O)Nc3ccc(C)c(F)c3)sc2n1 | 11.7% |
| CCOC(=O)c1ccc2nc(C)c(CCC(C)=O)c(Cl)c2c1 | -2.83% |
| NC(=O)Cn1cc(/C=N\NS(=O)(=O)c2cccc([N+](=O)[O-])c2)c2ccccc21 | 32.4% |
| Nc1nonc1-n1nnc(C(=O)N/N=C/c2cccc(F)c2)c1CN1CCCCCC1 | 20.8% |
| Cc1cccc(CC2CC(=O)N(c3ccc([N+](=O)[O-])cc3)C2=O)c1 (stereo not shown) | -53.3% |
| Cc1nc2c(cc1C(=O)N/N=C/c1ccc([N+](=O)[O-])cc1)c(=O)n(C)c(=O)n2C | -12% |
| CC1CN(c2ccc([N+](=O)[O-])c3cccnc23)CC(C)N1 (stereo not shown) | -33.4% |
| CCOC(=O)CNC(=O)c1cn(C)c(=O)c2cc(OC)c(OC)cc12 | 13.1% |
| O=C(c1ccc(CSc2ccc(Cl)cc2)cc1)N1CCOCC1 | -48.3% |

| Structure (SMILES) | hERG current change (%, negative = inhibition) at 10uM |
| --- | --- |
| Cc1cc2cc(CCNC(=O)C(=O)c3c[nH]c4ccccc34)c(=O)[nH]c2cc1C | 1.09% |
| COc1cccc(/C=N/NC(=O)C(C)Cn2cnc3ccccc32)c1 (stereo not shown) | -7.38% |
| COC(=O)c1ccc(NC(=O)CSc2nc3ccc(N4C(=O)C5C6C=CC(C6)C5C4=O)cc3s2)cc1 (stereo not shown) | -2.9% |
| CCOC(=O)N/N=C\c1cccc(OC)c1OC/C=C/c1ccccc1 | -10.8% |
| CCN1C(=O)C(CC(=O)Nc2cccc(C(C)=O)c2)S/C1=N\c1ccccn1 (stereo not shown) | 23.5% |
| Cn1c(SCc2cccc([N+](=O)[O-])c2)nc2c(c1=O)SCC2 | -36.6% |
| CN=C(Nc1cc(C)nn1-c1ccccc1)c1ccc(F)cc1 | -9.94% |
| COc1cc(OC)cc(-c2cc3nc(C)c(CCC(=O)NC(C)CCc4ccco4)c(C)n3n2)c1 (stereo not shown) | -58.4% |
| COc1ccc(-n2ncc3c(=O)n(CC(=O)N4CCCc5ccccc54)cnc32)cc1 | -14.8% |
| CCCCC/C(=N\NC(=O)CCC(=O)NCc1ccccc1)c1ccccc1 | -0.38% |
| COc1ccc(N2C(=O)C3C(c4ccc(C(=O)O)cc4)NC(Cc4ccccc4)(C(=O)O)C3C2=O)c([N+](=O)[O-])c1 (stereo not shown) | 5.34% |
| O=C(NCc1ccccn1)c1cc2cc(Br)ccc2oc1=O | 9.14% |
| Cn1c(Cn2c(C(F)(F)F)nc3ccccc32)nc2ccccc21 | -13.8% |
| CN(c1ccc(C(=O)N2CCOCC2)cc1)S(=O)(=O)c1ccc(Cl)cc1 | -34.2% |
| CC(C)CNC(=O)CC(=O)N/N=C/c1ccc(Br)cc1 | 7.16% |
| CCn1cc(C(=O)Nc2ccccc2)c(=O)c2ccc(C)nc21 | 25.4% |
| O=C(O)c1cc(NC(=O)c2ccc3c(c2)C(=O)N(Cc2ccccc2)C3=O)cc(C(=O)O)c1 | 7.78% |
| O=C(CSc1nnc2scc(-c3ccccc3)n12)NCC1CCCO1 (stereo not shown) | -1.45% |
| O=C(Nc1nnc(C2CCCCC2)s1)C1CC(=O)N(c2ccc(F)cc2)C1 (stereo not shown) | 13.4% |
